Measurements published in PubChem BioAssay AID485344 (National Center for Advancing Translational Sciences (NCATS), 2010).
The whole screen tested about 340,000 compounds, of which about 6,900 (2%) were called active. No stated cut-off is given here; in the data, active means inhibition above about 30%; inactive means below that, where a call was filed. This is a selection; strong and weak results do not stand in their true shares. Entries without a call were filed so in the source.

Target: D(2) dopamine receptor (Homo sapiens) (UniProt P14416)
Test: HTS Assay for Allosteric Antagonists of the Human D2 Dopamine Receptor: Primary Screen for Antagonists; further: 0% is about no effect
Conditions: HEK293 TREx D2 cells, calcium flux, dopamine EC80; at 10 µM; stronger effect = higher value
Outline: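 Calcium flux kinetic readout in an inducible HEK293 TREx D2 line plated overnight at 30 C. After 180 s compound exposure, an EC80 dopamine challenge follows with another 180 s kinetic read to detect antagonism.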

UniProt P14416, sequence (P14416 whole entry, looked up): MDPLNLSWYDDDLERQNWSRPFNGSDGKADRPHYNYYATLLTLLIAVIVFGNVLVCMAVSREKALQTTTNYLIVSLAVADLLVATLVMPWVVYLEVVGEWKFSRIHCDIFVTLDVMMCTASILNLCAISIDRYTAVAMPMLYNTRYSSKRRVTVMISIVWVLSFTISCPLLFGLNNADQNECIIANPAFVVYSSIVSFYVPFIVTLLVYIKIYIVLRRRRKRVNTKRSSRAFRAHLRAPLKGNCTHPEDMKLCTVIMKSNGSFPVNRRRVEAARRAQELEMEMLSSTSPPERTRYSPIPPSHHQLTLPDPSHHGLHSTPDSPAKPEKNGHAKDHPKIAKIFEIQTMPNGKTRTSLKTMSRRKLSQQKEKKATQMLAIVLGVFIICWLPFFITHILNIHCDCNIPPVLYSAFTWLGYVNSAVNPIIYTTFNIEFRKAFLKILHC

| Compound | inhibition |
| --- | --- |
| CCc1nnc(SCc2ccc(F)cc2Cl)c2cc3sc(C)cc3n12 | -1.96% |
| COc1ccc(NC(=O)C2CCC(CNS(=O)(=O)c3ccc4c(c3)C(C)(C)C(=O)N4C)CC2)cc1 (stereo unspecified) | 17.2% |
| CCOc1ccc(Nc2ncnc3c2nc2n3CCCCC2)cc1 | 13.5% |
| Cc1cccc(N2CCN(C(=O)Cn3ncc4c3-c3ccccc3OC4)CC2)c1C | 6.16% |
| O=C(Nc1nnc(S(=O)(=O)N2CCCCCC2)s1)c1cccc(Br)c1 | 1.08% |
| O=C(Nc1cccc(Cl)c1)c1cc(-c2ccccc2)on1 | 3.83% |
| CC(C)C(=O)Nc1ccc2c(c1)nc(CCN1CCN(c3ccccn3)CC1)n2C | active: 32.6% |
| Cc1ccccc1CN1C[C@@H]2C[C@@H](c3cnc(N4CCOCC4)s3)N3CCC[C@@]23C1=O | active: 36.7% |
| Cn1cc(C(=O)NCCc2ccc(Cl)cc2)c(=O)c2cc(S(=O)(=O)N3CCOCC3)ccc21 | -1.57% |
| COc1ccc(CNC(=O)CCCc2nnc3n(CCC(C)C)c(=O)c4sccc4n23)cc1 | -2.02% |
| O=c1[nH]c(C2CCCN(S(=O)(=O)c3ccccc3Cl)C2)nc2c1nnn2Cc1ccc(OC(F)(F)F)cc1 (stereo unspecified) | 3.22% |
| Cc1ccc(CCNC(=O)C2CC(=O)N(CCc3ccccc3)C2)cc1 (stereo unspecified) | -1.18% |
| COc1ccc(CCNC(=O)c2ccc3c(c2)c(C)c(C)n3Cc2ccccc2)c(OC)c1OC | 7.99% |
| CCc1nn(CCCC(=O)N2CCN(c3ccc(OC)cc3)CC2)c(=O)c2cc3occc3n12 | -4.29% |
| CCOc1cc(C(=O)Nc2ccc(-c3nc4cc(Cl)ccc4o3)cc2)cc(OCC)c1OCC | 4.26% |
| CC1CCCCN1C(=O)CSc1n[nH]c(-c2ccccc2)n1 (stereo unspecified) | 5.24% |
| CC(=O)c1cccc(-n2c(=O)c3c4c(sc3n(CC(=O)c3ccc(Cl)cc3)c2=O)CN(C(C)=O)CC4)c1 | -8.88% |
| Cc1cccc(C(=O)N(Cc2ccco2)Cc2ccccc2F)c1 | 5.49% |
| CCN(CC)c1ccc(/C=N/NC(=O)CNC(=O)c2ccc3c(c2)OCCO3)cc1 | active: 33% |
| COc1cccc(C2C(=O)N(C3CCCCC3)CC(=O)N2Cc2ccc(Cl)cc2)c1 (stereo unspecified) | -7.88% |
| Cc1cc(NC(=O)N2CCC(CN3CCOCC3)CC2)ccc1Br | 9.71% |
| Cc1ccc(NC(=O)Cn2c(=O)oc3cc(S(=O)(=O)N4CCC(C)CC4)ccc32)cc1Cl | -0.754% |
| Cc1ccc2c(c1)C(=O)OC(C(=O)Nc1ncc(Cc3ccccc3)s1)C2 (stereo unspecified) | 9.17% |
| CCc1ccc(C2C(C(=O)Nc3ccc(Cl)cc3)=C(C)Nc3ncnn32)cc1 (stereo unspecified) | -2.97% |

| Compound | inhibition |
| --- | --- |
| COc1cccc(-c2nc3c(c(C)nn3-c3ccccc3)c3cc(OC)c(OC)cc23)c1 | 5.31% |
| CCNc1nc(Oc2ccc(=O)n(-c3ccccc3)n2)nc(N(C)C)n1 | -4.54% |
| COc1ccc(N2CCN(C(=O)c3cc4cc5ccc(Cl)cc5nc4o3)CC2)cc1 | 17.3% |
| COc1ccc(C)cc1S(=O)(=O)NCC(c1ccc(N(C)C)cc1)N1CCc2ccccc21 (stereo unspecified) | -13.6% |
| O=C(O)c1ccc(N2C(=O)c3[nH]nc(-c4ccccc4)c3C2c2cccc(F)c2)cc1 (stereo unspecified) | 14.1% |
| COc1ccccc1C(=O)Nc1cc(-c2ccc(C)cc2)no1 | 15.5% |
| Cc1ccccc1Cn1c(CN2CCN(c3cc(Cl)ccc3C)CC2)nc2c1c(=O)[nH]c(=O)n2C | -24.3% |
| COc1ccc(CCNC(=O)CCc2c(C)c3cc4c(C)coc4cc3oc2=O)cc1 | -3.34% |
| Cc1ccc(Cl)cc1NC(=O)CCCN1C(=O)CCn2nc(-c3cn(C)c4ccccc34)cc21 | -3.38% |
| CCOc1ccc(CCNC(=O)CCn2c(=O)c3cccn3c3cccnc32)cc1 | 7.36% |
| CC1Cc2cc(S(=O)(=O)CCC(=O)Nc3ccc(Cl)cc3F)ccc2N1C(=O)C1CC1 (stereo unspecified) | -3.39% |
| CC1CN(C(=O)/C(C#N)=C2\N=C(NC(=O)c3ccccc3Cl)c3ccccc32)CC(C)O1 (stereo unspecified) | active: 58.9% |
| COc1ccc(CCC(=O)NCc2nc3cccnc3n2Cc2ccccc2)cc1 | -1.02% |
| CC(C)Oc1ccc(C(=O)Nc2ccc(-c3nc4ccccc4s3)cc2)cc1 | -8.57% |
| O=C(CSc1nc2ccccc2nc1Cc1ccccc1)N1CCN(c2ccccc2)CC1 | 4.47% |
| CC(=O)Nc1cc(-c2ccccc2)nn1Cc1cccc(Cl)c1 | -5.74% |
| CCc1ccccc1Nc1nn2c(=O)c3ccc(C(=O)Nc4ccc(OC)cc4)cc3nc2s1 | 7.99% |
| COC(=O)c1nnn(CC(=O)NC(=O)Nc2ccccc2F)c1C(=O)OC | 7.32% |
| Cc1noc(NS(=O)(=O)c2ccc(NC(=O)c3ccc(Br)cc3)cc2)c1C | -6.67% |
| Cc1ccc2oc(C(=O)Nc3nnc(CC(C)C)s3)cc(=O)c2c1 | -5.53% |
| CCN(CC)c1cc(C)nc2nc(-c3ccc(C)cc3)nn12 | -15.2% |
| Cc1ccc(CN2CCSc3ccc(C(=O)Nc4ccc(F)cc4F)cc32)cc1 | -13.8% |
| COc1ccc(N2CCN(C(=O)c3cc4c(=O)n(Cc5ccccc5)ccc4nc3C)CC2)cc1 | 4.82% |
| COc1cc(CNCc2c(C(=O)O)c(C)n(Cc3cccc(Cl)c3)c2C)cc(OC)c1OC | 12.9% |

| Compound | inhibition |
| --- | --- |
| CCC(C(=O)N1CCN(c2cc(Cl)ccc2C)CC1)n1nc(C)n2c(cc3occc32)c1=O (stereo unspecified) | -5.35% |
| COc1ccc(Br)cc1CNC(=O)C(C)n1nc(C)n2c(cc3occc32)c1=O (stereo unspecified) | 11.6% |
| CCc1cccc(NC(=O)CN2C(=O)CCc3cc(S(=O)(=O)N4CCOCC4)ccc32)c1 | 11.7% |
| Cc1c(C(N)=O)nnn1-c1ccc(Br)cc1 | 15.3% |
| CCN(CC)CCNC(=O)C1CCCN(c2ncnc3onc(C)c23)C1 (stereo unspecified) | 5.35% |
| Cc1ccc(C)c(-c2csc(-c3c(N)c(C(=O)c4ccc5c(c4)OCO5)n4ccccc34)n2)c1 | -7.97% |
| CCOC(=O)c1c(S(=O)(=O)N2CCCC(C(=O)N3CCN(c4ccc(F)cc4)CC3)C2)c(C)n(C)c1C (stereo unspecified) | 17.9% |
| COc1ccc(CCNC(=O)Cn2nc(C)n3c(cc4occc43)c2=O)cc1OC | 0.562% |
| COc1ccc(CCNC(=O)Cn2ncc3c(C)n(Cc4ccccc4F)c(C)c3c2=O)cc1OC | 2.33% |
| Cc1cccc(NC(=O)Cn2c(=O)oc3cc(S(=O)(=O)NCc4ccccc4)ccc32)c1 | 0.163% |
| CCn1cc(C(=O)OCC(=O)Nc2cc(Cl)ccc2OC)c(=O)c2ccc(C)nc21 | 13.6% |
| COc1ccc(Br)cc1C1CC(=O)Nc2c1c(C)nn2-c1nc(C)cc(C)n1 (stereo unspecified) | 15.3% |
| Cc1ccc2nc(N(Cc3cccnc3)C(=O)C3CCCCC3)sc2c1 | 11% |
| COc1ccc(NC(c2ccc(F)cc2)c2nnc(-c3ccccc3Cl)o2)cc1Cl (stereo unspecified) | 3.98% |
| Cc1cc2c(=O)c(C(=O)c3ccncc3)cn(CC(=O)Nc3cccc(C)c3C)c2cc1C | 3.87% |
| Cc1oc(-c2ccc(C(=O)NCc3ccc(N(C)C)cc3)cc2)nc1COc1ccccc1 | -0.184% |
| CC(NC(=O)CN(C)S(=O)(=O)c1ccc2c(c1)c(=O)n(C)c(=O)n2C)c1ccccc1 (stereo unspecified) | -9.78% |
| Cc1cc(=O)n(CC(=O)NCCC(C)C)c2c1c(C)nn2C | 2.05% |
| Cn1cc(S(=O)(=O)N2CCCCC2)cc1C(=O)N1CCN(c2ccc(F)cc2)CC1 | 9.86% |
| Cc1ccc2c(c1)c(=O)c(C(=O)c1ccncc1)cn2CC(=O)Nc1c(C)cccc1C | -8.84% |
| CCc1ccc(NC(=O)CSc2nccn2C2CCCC2)cc1 | 12.5% |
| Cc1ccc(C)c(S(=O)(=O)c2cnc(SCC(=O)Nc3ccc(F)cc3F)[nH]c2=O)c1 | -12.3% |
| Cc1ccc(CNCc2c(C(=O)O)n(Cc3ccccc3C)c3cc(C)ccc23)cc1 | -1.65% |
| Cc1ccc(CC2C(=O)N(CC(=O)O)C(=O)C2C)cc1 (stereo unspecified) | active: 30.9% |

| Compound | inhibition |
| --- | --- |
| Clc1ccc(-c2csc(N/N=C/c3ccc4c(c3)OCO4)n2)cc1 | active: 34.8% |
| CC1CCCCN1C(=S)NCc1ccccc1 (stereo unspecified) | active: 31.9% |
| COc1cc(OC)c(NC(=O)CCn2cnc3onc(-c4ccc(F)cc4)c3c2=O)cc1Cl | -10.9% |
| CCOc1ccc(NC(=O)N(Cc2c[nH]c3ccccc23)C2CCCCC2)cc1 | 18% |
| Nc1cc(=O)nc(SCC(=O)Nc2ccc(F)cc2)n1-c1ccc(Cl)cc1 | 2.26% |
| Cc1oc(-c2cccc(Cl)c2)nc1CN1CCC(C(=O)NCCCN2CCN(c3cccc(Cl)c3)CC2)CC1 | -11.9% |
| Cc1ccc(S(=O)(=O)Nc2cccc(-c3ccc(N4CCCCC4)nn3)c2)s1 | -0.919% |
| CC(=O)c1cccc(NC(=O)c2nc(-c3ccc(C)cc3)n3c2CCCCC3)c1 | -16.5% |
| Cc1cccc(NC(=O)C2CCCN(S(=O)(=O)c3cccc4nonc34)C2)c1 (stereo unspecified) | -2.86% |
| Cc1ccc(NC(=O)C(=O)NCc2ccc(Cl)cc2)cc1 | -7.41% |
| CCOC(=O)C(C)Sc1nnc2ccc3ccccc3n12 (stereo unspecified) | 5.05% |
| COc1ccc(C2(CNC(=O)C(=O)Nc3cccc(C(F)(F)F)c3)CCCC2)cc1OC | -4.85% |
| CCOc1ccccc1C(=O)NCc1ccc2c(c1)CCN2C(C)=O | 13.9% |
| Cc1ccc(C2c3[nH]c4ccccc4c3CCN2C(=O)Nc2ccc(C)c(C)c2)cc1 (stereo unspecified) | 13.9% |
| COc1ccc(NC(=O)c2sc3nc4c(cc3c2N)CN(Cc2ccccc2)CC4)cc1 | -9.8% |
| COc1ccc(C(=O)NCCc2sc(-c3ccc(F)cc3)nc2C)cc1OC | 0.699% |
| CC1CCC(NC(=O)C2(C)Cc3ccccc3C(=O)N2Cc2ccc(F)cc2)CC1 (stereo unspecified) | 5.73% |
| CCCCN(C)Cc1c(O)ccc2c(-c3ccccc3)cc(=O)oc12 | active: 64.1% |
| CCC(C(=O)NC1CCCCC1)n1c(SCc2ccc(F)cc2)nc2ccncc21 (stereo unspecified) | -19.5% |
| CCC(Cn1nnc2ccccc2c1=O)NC(=O)Nc1ccc(C)cc1C (stereo unspecified) | 18.6% |
| Cc1cccc(-c2nc(CSc3nncn4c3cc3oc(C)cc34)c(C)o2)c1 | 20% |
| COc1ccccc1OCC(=O)Nc1nc2c(s1)CC(C)CC2 (stereo unspecified) | 12.5% |
| CCSc1ncc(Cl)c(C(=O)Nc2c(C(=O)Nc3cccc(C)c3)oc3ccccc23)n1 | 21.1% |
| Cc1ccc2nc(-c3ccc(Cl)cc3)cc(C(=O)OCC(=O)c3ccccc3)c2c1 | -4.37% |
